Among all 150,000 compounds or so, about 540 (0.36%) showed an effect of 50% or more. The list shows a part of the results.
system: Plasmodium falciparum; assay: Primary screen in NF54 nanoGlo assay, in single point, at 2uM, 72h; a lower Z score goes with more inhibition; type: functional, Erythrocyte; details: timepoint 72 hour

SMILES	% Inhibition	Z score
CCN(C[C@H]1CCN(c2ccnc(COC)n2)C1)CC(F)(F)F	12%	-1.82
OCCN1CCC[C@H](NCc2cnn(-c3ccccc3)n2)C1	5%	-0.93
CCCc1nc(-c2noc(C[C@H](C)c3ccccc3C)n2)co1	6%	-0.85
O=C(Oc1ccc(Cl)c2cccnc12)[C@H]1CCCN(S(=O)(=O)c2ccc(F)cc2)C1	8%	-1.25
NC(=O)[C@H]1CCCN(CCCNc2cc(C(F)(F)F)nc(N3CCCC3)n2)C1	-5%	0.88
NC(=O)c1ncn(C2CCN(c3ccnc4cc(F)ccc34)CC2)c1N	3%	-0.52
c1nc2c(c(NCCc3cn[nH]c3)n1)CCN(C[C@H]1CCCNC1)CC2	-9%	1.52
Cc1cc(O)c2cccc(-c3cccc(C(=O)NCCCN4CCCC4)c3)c2n1	-1%	0.22
CCc1nccc(-c2c(-c3ccccc3)ncn2C[C@H](O)c2ccccc2)n1	0%	0.04
O=C(Nc1ncc(-c2cnccn2)s1)[C@@H]1CCCCN1C1CCCC1	-2%	0.46
CCN=C(NCc1sccc1C)NC[C@H]1CN(C)CCN1C	3%	-0.65
Cc1cccc2[nH]cc(CC(=O)N(C)CCCN(C)C(=O)Cc3c[nH]c4cccc(C)c34)c12	-6%	1.19
Cc1ccccc1[C@H](C(=O)N(Cc1c(C)nn(C)c1C)C1CC1)N(C)C	-5%	1.11
Cc1cc(N2CC3COCCC3(C(=O)O)C2)nc2ccc(F)cc12 (stereo unspecified)	76%	-13.26
CN(C)c1nc(NC[C@H]2CC3(CCNCC3)CO2)ncc1F	0%	-0.08
COc1ccc(N(C)C(=O)c2cccc3[nH]ccc23)cc1F	9%	-1.55
C[C@@H](c1ccc(-c2c(-c3ccccc3)ncn2CCCN(C)C)cc1)N(C)C	47%	-10.07
Cc1ccc2c(c1)c(Cn1cnc(-c3ccccc3)c1-c1cnn(C)c1)nn2C	-14%	2.4
O=c1nc(NC(c2ccccc2)c2ccccc2)cn[nH]1	-4%	0.77
Cc1cc(N2CCc3c(cnc(C)c3-c3noc(-c4c[nH]nc4C)n3)C2)ccn1	6%	-1.1
CCNc1ccc(-c2nc3ccccc3[nH]2)cn1	-3%	0.54
CCc1c[nH]c2ncnc(NC[C@H](O)c3cc(F)c(F)c(F)c3)c12	-3%	0.58
C=C(C)CNc1ncnc2cc(Cl)ccc12	-5%	1.06
Cc1noc(-c2ccnc(N3CCCN(Cc4cccnc4)CC3)c2)n1	1%	-0.18
CCN1CCN(c2nc3cc(OC)ccc3cc2CNCC2CC3C=CC2C32CC2)CC1 (stereo unspecified)	-3%	0.49
CC[C@H](Nc1cccc(OC)c1)C(=O)NCc1cccc2[nH]ccc12	3%	-0.56
Cc1cc(C)nc(Nc2ccc(C(=O)NCCN(C)C)cc2)n1	-5%	0.96

SMILES	% Inhibition	Z score
O=C(O)c1ccc(CN2CCN(S(=O)(=O)C3CC3)CC2)cc1Cl	-15%	2.63
Cc1cc(C)c(-c2c(-c3ccccc3)ncn2CC2(O)CCN(C)CC2)c(C)c1	-10%	1.94
CN(CC1CCC1)c1c(C#N)cnc2c(F)c(F)c(F)cc12	-5%	0.9
CN1CCN(c2c(NCCc3ccccc3)c(=O)c2=O)CC1	-4%	0.74
O=C(c1ccc2ccnc(N3CCN(c4ccccc4)CC3)c2c1)N1CCC(N2CCCCC2)CC1	-10%	1.7
COCCN1CC2CCC1CN(S(=O)(=O)c1cccc(C#N)c1)C2 (stereo unspecified)	-4%	0.73
Cc1ccc2nccc(N3CCC(N4CCC(O)CC4)CC3)c2c1	22%	-4.29
COC(=O)c1cc(Nc2ccc(OCc3ccccc3)cc2)c2cccc(F)c2n1	10%	-1.48
O=C(NCc1cncc(-c2ccsc2)c1)c1cc2ccccc2[nH]1	2%	-0.37
CC(C)OC[C@@H](O)CN1CCN(Cc2nc(C(=O)N3CCN(C4CCCC4)CC3)co2)CC1	-5%	0.94
COCCOc1ccc(-c2ccc(CN3CCNCC3)cc2)cn1	1%	-0.11
Cc1cnccc1N1CCCN(Cc2ccccc2OCCN2CCN(C)CC2)CC1	96%	-19.05
CO[C@H]1CCCN(c2ccc(NC(=O)c3cc4ccccc4[nH]3)cc2)C1	-4%	0.67
COCCNc1nc(NC(C)CN2CCOCC2)nc(NC(C)CN2CCOCC2)n1 (stereo unspecified)	0%	0.07
O=C(NCCN1CCNCC1)c1cccc(-c2cc(Cl)ccc2F)c1	-8%	1.7
C[C@H]1CN(c2ccc(CNC(=O)N3CCC(c4c[nH]c5ccccc45)CC3)cn2)CCO1	3%	-0.51
O=C(O)c1ccccc1C1CCN(C(=O)[C@]2(C(=O)O)CCCO2)CC1	-3%	0.48
CCCCc1ccnc(NS(=O)(=O)Cc2ccc(C#N)cc2)n1	-6%	0.96
CC(C)(C)OC(=O)N1CCC(CNC[C@H]2CCN(CC(F)(F)F)C2)CC1	-8%	1.61
CCOc1ccc(Nc2cc(-c3ccccc3)c(-c3ccccc3)nn2)cc1	-1%	0.23
CN(CCN1CCCCCC1)C(=O)c1cccc(-c2ccncc2F)c1	-3%	0.73
CN(C)Cc1ccc(N2CCN(C3CCC(C(=O)OC(C)(C)C)CC3)CC2)nc1 (stereo unspecified)	-5%	0.86
CN1CCC(Cc2noc(-c3ccc(CN4CCN(C)CC4)o3)n2)CC1	-9%	1.81
N#Cc1ccc2[nH]c(-c3ccccc3OCCN3CCCCC3)nc2c1	-6%	0.98
FC(F)CN1CCC(Nc2cccc(CN3CCOCC3)c2)CC1	-8%	1.4
CCc1cc(=O)[nH]c(-c2ccc(NC3CCN(c4nccs4)CC3)nc2)n1	-6%	1.34

Source: ChEMBL document CHEMBL5308541, “MAIP: An Open-Source Tool to Enrich High-Throughput Screening Output and Identify Novel, Druglike Molecules with Antimalarial Activity” (ACS Med Chem Lett, 2023)
